The other results are listed elsewhere or left out.

The experiment concerns PF3D7_0420300 AP2 domain 1 (GST-tagged). Nature of the experiment: gcPBM binding intensity (ln(normalized median fluorescence intensity)); higher = stronger DNA binding. The gist of the method: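 Each value is the highest Masliner-normalised natural-log median intensity across replicate spots of either orientation of a probe. The probes were primer-extended double-stranded 36-bp intergenic genomic sequences on an Agilent 4 × 180k array, alongside negative controls, exposed for 1 h to GST-tagged P. falciparum DNA-binding domains expressed in E. coli. Bound protein was picked up with Alexa488 anti-GST antibody and scanned at 488 nm.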
As to “TGTTTATTCTTTAAATATTATTCAAATACTACAAGT [CACACA_negctrl_site746]”, the “gcPBM binding intensity (ln)” value came to 8.95.
For “AAAAAAAAAAAAAATTGTACATAATAAAAATATGGA [XGTACX_site3189]” the value was 9.07; for “TATGGTAAATACAACACACACACATATGTATTTATA [CACACA_site4666]”, 9.93; for “TGGATATAAAACAACGTGCACTTGGTTGATTTTAAA [GTGCAC_site9900]”, 9.09.
Next, “ATTTATTTATATAATACACACAAATATCTTAATTAA [CACACA_site3993]”: 9.25.
In the case of “TTTTGTACAAAAATAATGCACACTATATCAAGTTTT [CACACA_site3595]”, the “gcPBM binding intensity (ln)” value came out at 9.22.
For “AAGAAAATATATTCACATGAAGAATTAAAATAAAAC [TGCATGCA_negctrl_site119]” the value was 9.47; for “ATATAAAAAGGAAAAAGTACAAAAAAATGTTTGTGA [XGTACX_site8552]”, 9.33.
As to “CAAATTATTATTTAAGCACACATGTTTATTTTTTTT [CACACA_site2672]”, the “gcPBM binding intensity (ln)” value worked out at 9.34.
Next, TAGGCCTTAAATCGTGTGCACTTTTTTTTTTTTTTT: 9.31; “TATGTGCCAAAACACACACACATATATATATATATA [CACACA_site469]”: 9.62.
For “TTTTTTTTTTTTTTTTTTGGTGAGAGAAGAAAATTC [CACACA_negctrl_site950]” the value was 8.49; for “AAGCATACATCAAGCACACACACACCCACACCCACA [CACACA_site372]”, 10.1.
For the sequence “AAATATATCAATATATATATATATATATATATATAT [XGTACX_negctrl_site544]”, the “gcPBM binding intensity (ln)” value was found to be 8.92.
Next, “ATTTATATTTGTATTTGTACTTATATTTATATTTAT [XGTACX_site1540]”: 9.64.
Next, “GCTTTTGTCATGTGCACACACGTATATATTATATAT [CACACA_site6146]”: 9.99.
For AAAAAGGTTAAGGTAGTGCATAATAAAGAATATTAA the value was 9.25; for “ATCATTCTTCATTTGTCACACATGATAAAAATATAT [CACACA_site4953]”, 9.34.
Take “CTATTTTGGATGTGTACACATATATATATTTATATT [CACACA_site5706]”: the “gcPBM binding intensity (ln)” value amounted to 9.53.
Next, “CTATTATAATATTTTACACACCATGTAAAATATATA [CACACA_site3206]”: 9.26; “TTTTTTAAGTAATGAAATGATTTTCTTATAGAATAA [GTGCAC_negctrl_site395]”: 8.58.
For “CATTAACATTTTATTACACACAATAATTTATAAGTA [CACACA_site4083]” the value was 9.37; for “TGTGCAAGATTTTTCTGTACATATATATAAATATAT [XGTACX_site1796]”, 8.9.
Turning to “AAATATTCTTGTTTAATACACACTGTAGTATTATAT [CACACA_site433]”, the “gcPBM binding intensity (ln)” value was 9.45.
For “TAAATACTAATATGTACACACATATAGATATAGATT [CACACA_site7247]” the value was 9.4; for “GCTAAAAGTATATGCACACACATATATATGCACATA [CACACA_site1635]”, 9.58.
For TTTTGTACTTCATGCGTGCACAGAAATATATTATAT the value was 9.21.
Consider “GAATAAGATAGATATACACACCATTATAAATATAAA [CACACA_site5392]”, for which the “gcPBM binding intensity (ln)” value was 9.55.
For “TTAAATAGATAAACTAAACACACAAAAAAAAAAAAA [CACACA_site8308]” the value was 9.47.
“ATGTTAATCATTAAAAATAAAGTTTAATATAAGAAT [XGTACX_negctrl_site155]”: the “gcPBM binding intensity (ln)” value was 9.2.
As to “CAAAACAAGCAAAAATGTACTTGATAAATATTTTCT [XGTACX_site1776]”, the “gcPBM binding intensity (ln)” value is 9.2.
For “AACATACCCATATACACACACACATAAATACAGATA [CACACA_site4744]” the value was 10.1.
As to “ATTTAATTCTTTTGTTATAAAATTTTAGTATATATA [CACACA_negctrl_site1649]”, the “gcPBM binding intensity (ln)” value amounted to 9.2.
For the sequence “CAAAAAAAATTATACACACACACACCGATATATATA [CACACA_site4719]”, the “gcPBM binding intensity (ln)” value is 10.2.
With “TTTATATATCAATACATTATGTATTAAGTCTTACAT [TGCATGCA_negctrl_site499]”, the “gcPBM binding intensity (ln)” value stood at 9.17.
For “TTTTAATTAAAAAAATATATAATAAAATTAAATTAT [CACACA_negctrl_site95]” the value was 8.77.
Next, “GGTATATAAAAATATTGTACGAAAATATGCATATAA [XGTACX_site2501]”: 9.24; “GTATGTTAATTTAATTGTACAAAAAGATACACTGAT [XGTACX_site5710]”: 9.32.
As to “TTTTAAAAAAAACAAAAACATTGTCATATGGAAAAT [CACACA_negctrl_site297]”, the “gcPBM binding intensity (ln)” value turned out to be 9.16.
Next, “AAATATAAAAAATATACACACATATAAAATCTATAT [CACACA_site7406]”: 9.67; “AGGAACAATATATTTGCACACAAAAAATATATATTT [CACACA_site3316]”: 9.44.
Next, “TATATATATATAATTTGTACATATATATGTAACAAT [XGTACX_site8728]”: 9.16.
For “TTCTGCTACCACTTGAATGTCAATGAAATTAAAAAA [CACACA_negctrl_site1164]” the value was 8.88; for “ATTTATAAAACAGGCACACATATAATAAATTTTATA [CACACA_site2600]”, 9.54.
Take “TAATAATTATTGCACGCACACAAAAACCTATAGATT [CACACA_site2931]”: the “gcPBM binding intensity (ln)” value was found to be 9.45.
Next, “ACTATAAATATTTATAAACACACAAATATATATATT [CACACA_site7891]”: 9.57; “ATACAATACACCGAACGTACATAAATCTATCTTTTA [XGTACX_site3668]”: 9.4; “ATTTTTTTTTTTACAGTGGAACCATATTTGCTCATT [CACACA_negctrl_site940]”: 9.2.
Next, “GATTATCTATCGCTTGAATGAAATGAAATCATGCAA [GTGCAC_negctrl_site471]”: 8.77; “AATACCGGAAAGCAAACACACATTTTAAAACCATAA [CACACA_site3862]”: 9.85.
Consider “ATAATAAATGATAGCACACATATGTACATATATACA [CACACA_site864]”, for which the “gcPBM binding intensity (ln)” value turned out to be 9.53.
Turning to “AAATAAAATAAAAGCACACAAAATGTAAATAATTAT [CACACA_site2775]”, the “gcPBM binding intensity (ln)” value turned out to be 9.74.
For “AAAATACTTTGAATTTGTACATATAGACATAATATT [XGTACX_site6181]” the value was 9.11; for “CGCGAACATACATACACACACATATTTATATAGGTA [CACACA_site6241]”, 9.81.
For “AAAGAAATAAAAAAAAGTACACAATTATAAATATAT [XGTACX_site3428]” the value was 9.55.
Next, “GTATGTAATATTTTAGTGCAAAAAAAAAAAAAAAAA [GTGCAC_site9790]”: 8.58.
As to “ACAAAAATATTTGTAAAAAGAAATATAAATAAATAA [TGCATGCA_negctrl_site357]”, the “gcPBM binding intensity (ln)” value was 9.13.
Regarding “AAAAATAGAGCAGCTCTCATATTTTTATGTGCAATA [CACACA_negctrl_site837]”, the “gcPBM binding intensity (ln)” value came to 8.95.
Next, “AGGATATATTATATGTACACACACATATAAGGGATT [GTGCAC_negctrl_site47]”: 9.91.
For “TATTACACACAATATTGTACACATAGGAAAAATATT [XGTACX_site1726]” the value was 9.62.
Turning to “GCATTTATGAAAAATGTACACACATCAAATGCTTAT [CACACA_site9347]”, the “gcPBM binding intensity (ln)” value was determined as 9.43.
As for “TATTTTTTACATTCGTGTACGCATTTTTGTGAATTT [XGTACX_site5339]”, the “gcPBM binding intensity (ln)” value amounted to 9.28.
For “TTTTAATTAGTACAAACACACATATACACCCAAAAA [CACACA_site5422]” the value was 9.69.
For “ATATAAAAAAGGGAGGTAAATGAATGTGAAACCCAA [GTGCAC_negctrl_site359]” the value was 9.55.
For “CTAATATAGGTATGCACACACAATATGTACATATTT [CACACA_site7558]” the value was 9.74; for “TAATTTTTTTTAAACACACACATTACATTCAAAAAT [CACACA_site127]”, 9.35; for “TTCACTAATAAATACGCACACATATACATATATATA [CACACA_site1383]”, 9.49.
As to “TTTCAAATATATATAGCACACAAGGTATAATATAAA [CACACA_site877]”, the “gcPBM binding intensity (ln)” value was determined as 9.32.
Next, “TAATTGTAGACATGCACACACAAATATTATATATGT [CACACA_site845]”: 9.69; “AAGGTATAGAAACACACACACGTGAATATAGTTTAA [CACACA_site5109]”: 9.71; “TATATATGTATATATTGTACTTTAAGACAAATATAT [XGTACX_site1052]”: 9.06.
For “AATATTTTTCAATTTCATGTGCATTCATTGAAGTTA [CACACA_negctrl_site1232]” the value was 9.13; for “TTCTTAAATATATTCAACATACATAATATATAATCT [CACACA_negctrl_site1806]”, 9.09.
For “TATATAACATATATATGTACACATAATATCAGATTT [XGTACX_site1041]” the value was 9.27.
For “CGTTATATAATAAAGGTGCATAGATATATCATTATA [GTGCAC_site9774]”, the “gcPBM binding intensity (ln)” value was 9.16.
Regarding “CCTCTCATTTTATATAGTACATATTTCAAAAAAAAA [XGTACX_site488]”, the “gcPBM binding intensity (ln)” value is 8.9.
For “GCATATATGGATATATAGGTATATATAAATGCAATA [GTGCAC_negctrl_site24]” the value was 9.24; for “AGGAGGATAGTTCACAGTACCCAGTAACTCTACGGA [XGTACX_site1997]”, 9.12.
Next, “ATATAAAAAAAAAATTGTACAAAAATATATACATAT [XGTACX_site469]”: 9.19.
Next, “GCATATTTTCCCTGTGAATAAAGTTTTTTTTTTTAT [XGTACX_negctrl_site87]”: 9.44; “TATAAAGATATAAATGCACACGTATTAAAAAAAAAA [CACACA_site8223]”: 9.49; “TCTAATACACAATGTTGTACATATTAATATATATGT [XGTACX_site2931]”: 9.34.
For the sequence “ATCATTCTTAAACCGTGTACTTATTATTTTTTTTTT [XGTACX_site2798]”, the “gcPBM binding intensity (ln)” value was found to be 9.63.
Next, “AAATGACTATATAAAAGTACTAGAAAGTATAAATAT [XGTACX_site944]”: 9.41; “AAAATACACGATAGTTGTACATTAAATGTATACAAT [XGTACX_site360]”: 9.46.
Regarding “CATCCGTTGATATATGCATGCATATTGTTATTACCA [TGCATGCA_site868]”, the “gcPBM binding intensity (ln)” value was determined as 9.46.
For “TTCCTTTGTTGTCGTTGTACTTATATGGTTATAATT [XGTACX_site3082]” the value was 9.81; for “TATACATAAAAAAATTTTACCAGGTTAATACAAATA [CACACA_negctrl_site1171]”, 9.25.

For the origin of these results see the supplement of paper PMC11417369.
